# From the supplement of paper PMC8728848
# Some of the results follow.
# Target: Neu5Gc(b2-6)Gal(b1-4)GlcNAc
# Assay: glycan array binding signal (z-score within array); higher = stronger binding
# Conditions: glycan notation: IUPAC condensed, linker removed
# How it was run: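 The Consortium for Functional Glycomics database supplied 3228 glycan arrays, of which those lacking an available protein sequence were dropped. The binding signal, a within-array Z-score, was averaged across arrays of the same protein sequence and across linkers. Negative scores can be read as non-binding.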
binder,measurement,value
Clrb (Mus musculus) (protein) ITGATKTEQIPVNKTYAACPQNWIGVENKCFYFSEYPSNWTFAQAFCMAQEAQLARFDNQDELNFLMRYKANFDSWIGLHRESSEHPWKWTDNTEYNNTIPIRGEERFAYLNNNGISSTRIYSLRMWICSKLNSYSLHCQTPFFPSGTKHHHHHHHHG,glycan array binding signal (z-score),-0.401
